Experimental data taken from publication PMC4336329 (PLoS ONE, 2015).
Out of some 310,000 compounds screened, about 14,000 (4.5%) showed an effect of 50% or more. The effect is printed as a negative number. The list shows a part of the results.

molecular target: human ether-à-go-go-related gene (hERG) potassium channel (human, UniProt Q12809); assay: primary screen, population patch clamp on CHO cells stably expressing hERG
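Further: peak tail current of the secondary pulse compared with the same well before compound.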

human ether-à-go-go-related gene (hERG) potassium channel, sequence (Q12809 whole entry, looked up): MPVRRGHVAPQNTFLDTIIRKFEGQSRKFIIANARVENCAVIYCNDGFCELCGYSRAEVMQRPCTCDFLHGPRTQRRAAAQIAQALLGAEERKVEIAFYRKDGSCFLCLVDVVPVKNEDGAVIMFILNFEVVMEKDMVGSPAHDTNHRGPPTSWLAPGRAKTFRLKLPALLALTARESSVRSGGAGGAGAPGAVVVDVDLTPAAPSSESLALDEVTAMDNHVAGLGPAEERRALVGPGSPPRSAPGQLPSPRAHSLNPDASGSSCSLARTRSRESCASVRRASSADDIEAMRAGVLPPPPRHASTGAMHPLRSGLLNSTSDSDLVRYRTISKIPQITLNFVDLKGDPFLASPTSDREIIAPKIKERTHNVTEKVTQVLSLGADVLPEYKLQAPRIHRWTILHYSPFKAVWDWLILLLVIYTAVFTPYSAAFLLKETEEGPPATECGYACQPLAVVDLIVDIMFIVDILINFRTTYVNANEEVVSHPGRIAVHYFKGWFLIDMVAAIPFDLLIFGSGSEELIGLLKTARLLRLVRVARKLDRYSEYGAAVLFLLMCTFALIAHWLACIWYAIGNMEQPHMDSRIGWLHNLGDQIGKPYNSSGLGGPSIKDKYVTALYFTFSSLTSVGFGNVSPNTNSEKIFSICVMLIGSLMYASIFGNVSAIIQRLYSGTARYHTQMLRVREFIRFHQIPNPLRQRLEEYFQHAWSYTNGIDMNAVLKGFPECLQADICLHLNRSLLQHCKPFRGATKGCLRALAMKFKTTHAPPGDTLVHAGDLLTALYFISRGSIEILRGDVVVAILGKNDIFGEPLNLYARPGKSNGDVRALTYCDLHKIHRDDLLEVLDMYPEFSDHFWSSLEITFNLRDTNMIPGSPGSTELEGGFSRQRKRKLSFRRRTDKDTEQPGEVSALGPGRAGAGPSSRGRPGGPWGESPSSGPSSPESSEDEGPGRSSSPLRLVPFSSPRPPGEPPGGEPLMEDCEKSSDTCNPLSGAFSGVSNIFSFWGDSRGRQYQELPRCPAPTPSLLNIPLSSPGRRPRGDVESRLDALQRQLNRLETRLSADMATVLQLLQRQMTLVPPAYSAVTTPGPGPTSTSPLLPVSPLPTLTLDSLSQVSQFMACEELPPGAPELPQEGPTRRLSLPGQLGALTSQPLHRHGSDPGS

Structure (SMILES) | hERG current change (%, negative = inhibition) at 10uM [%]
CC(=O)c1c(C)[nH]c(C(=O)CSc2nc3ccccc3c(=O)n2CCCN2CCOCC2)c1C | -15.5
COC(=O)[C@H](CC(C)C)NC(=O)Nc1ccccc1F | 16.6
CSc1nc(N)c(C#N)c(-c2ccccc2Cl)c1C#N | 11.9
CC(=O)Nc1nnc(SCC(=O)c2ccc(F)cc2)s1 | -3.12
O=C(NCC(=O)N1CCN(S(=O)(=O)c2ccccc2F)CC1)c1ccc(Br)o1 | -15.5
Cc1c(C(=O)N2CCN(C)CC2)oc2ccc(Br)cc12 | -20
COC(=O)c1sccc1NC(=O)c1ccc(C#N)cc1 | 7.91
COc1cc(/C=N/NC(=O)c2cc(-c3c(C)nn(-c4ccccc4)c3C)n[nH]2)ccc1O | 1.36
O=C(CCS(=O)NCc1ccccc1)NCc1ccccc1 (stereo not shown) | 17.1
CCc1ccc(NC(=O)C(=S)NC2CCCCC2)cc1 | 26.8
COc1ccccc1CNC(=O)[C@H](Cc1c[nH]c2ccccc12)NC(=O)[C@@H]1Cc2ccccc2CN1 | -16.5
CCCC(C)C(=O)Nc1ncc(S(=O)(=O)c2ccc([N+](=O)[O-])cc2)s1 (stereo not shown) | -0.952
CC(C)=CCN1CCN(Cc2nc(-c3ccc(F)cc3)cs2)CC1CCO (stereo not shown) | -69
Cn1c(N2CCC(C(N)=O)CC2)nc2c1c(=O)n(Cc1cccc(Br)c1)c(=O)n2C | -64.7
O=C(NCc1cccnc1)c1cccc(F)c1 | 17.9
O=C(Cn1ccc2ccccc2c1=O)NCCC(=O)N1CCCCC1 | 2.91
CCCCC(=Nc1ccc(N)cc1)C1=C(O)C(C(=O)OC)C(C)(C)CC1=O (stereo not shown) | -1.62
Cc1ccc(CNC(=O)CCS(=O)(=O)c2cc3c(cc2C)NC(=O)CO3)cc1 | -38.5
Cc1ccc(-c2ccc(/C=N/NC(=O)c3ccccc3O)o2)cc1 | 17.6
Cc1ccnc(NC(=O)Cn2cc([N+](=O)[O-])cn2)c1 | 0.372
Cc1ccc(C(=O)Nc2cccc(C(F)(F)F)c2)cc1NC(=O)c1csc(-c2ccncc2)n1 | -62.5
Cc1ccc(O)c(CNc2nccs2)c1 | 6.55

Structure (SMILES) | hERG current change (%, negative = inhibition) at 10uM [%]
COCCN1Cc2cccc(C(=O)Nc3ccc(S(=O)(=O)N4CCCCCC4)cc3)c2C1=O | 19.8
Cn1cccc1CC(=O)NNC(=O)Nc1cccc(Cl)c1 | 18.9
CN1Cc2sc(NC(=S)NC(=O)c3ccccc3)c(C#N)c2CC1(C)C | -49.7
COC(=O)C1=C(c2ccc(F)cc2OCc2ccccc2)C[C@@H]2CC[C@H]1N2C(=O)NCc1ccc(OC)cc1 | 7.82
CCOc1ccc(-c2c(C(=O)N/N=C(\C)c3cccnc3)nnn2-c2nonc2N)cc1 | 21.7
Cc1cccc(N2CCN(C(=O)c3ccc(Cl)c(NC4=NC5CS(=O)(=O)CC5S4)c3)CC2C)c1 (stereo not shown) | 10.4
CCOC(=O)c1ccc(COc2nc3ccccc3nc2-c2ccccc2NC(C)=O)o1 | 12.8
O=C(CCN1C(=O)C2C3C=CC(C3)C2C1=O)Nc1ccc2ncccc2c1 (stereo not shown) | 18.3
Cc1ccc(-c2nnn(CC(=O)Nc3nnc(C(C)C)s3)n2)cc1 | 19.7
Cc1ccc(C)c(OCC(=O)Nc2nonc2NC(=O)COc2cc(C)ccc2C)c1 | -25.1
Cc1noc(C)c1COc1ccc(C(=O)OC(C)C(=O)Nc2ccc(N3CCOCC3)cc2)cc1 (stereo not shown) | 4.54
COc1cc(NC(=O)CCNS(=O)(=O)c2cc(Br)cnc2N)cc(OC)c1 | 15.1
Cc1ccc(C(=O)Cc2cc3ccccc3oc2=O)c(C)c1 | 16.3
O=C(COC(=O)CCC(=O)c1cccs1)NC(=O)c1ccc(OC(F)F)cc1 | -4.17
Cc1c(/C=N/NC(=O)c2cccnc2)cc(C#N)n1C | 23.2
O=C(COC(=O)c1cnccn1)Nc1ccc(Cl)cc1C(F)(F)F | 0.684
CCNC(=O)CN(C1CCCCC1)S(=O)(=O)c1ccc(F)cc1 | -0.0524
COc1ccc(CCNc2oc(COc3ccccc3F)nc2C#N)cc1 | -13.4
c1cncc(-c2nc3ccccc3s2)c1 | 2.39
Cc1cc(C)c(S(=O)(=O)/N=C2\C=C(Nc3ccc(C(=O)O)cc3)C(=O)c3ccccc32)c(C)c1 | 3
CN(N)C(=S)NCc1ccccc1 | 6.05
CSCCC(NC(=O)c1ccccc1)C(=O)N1CCN(C(C)=O)CC1 (stereo not shown) | 13.5

Structure (SMILES) | hERG current change (%, negative = inhibition) at 10uM [%]
COc1ccc(CCNCc2ccc(OCc3ccc(Cl)nc3)c(OC)c2)cc1OC.Cl | -63.3
COc1ccc2[nH]c3c(c2c1)CCN1C(=O)N([C@@H](C)C(=O)NCc2ccc(C)cc2)C(=O)[C@]31C | 9.26
Cc1csc(NC(=O)CSc2nnc(CCNC(=O)c3cccs3)n2C)n1 | 8.1
Cc1ccc(NC(=O)c2cccc3c2-c2ccccc2C3=O)cc1C | -9.58
Cc1cc(C)nc(NS(=O)(=O)c2ccc(NC(=O)c3cccc(N4C(=O)CCC4=O)c3)cc2)n1 | -1.75
CC(=O)Nc1cccc(NC(=O)CSc2nc(C)c(C)c(C)c2C#N)c1 | -3.48
O=C(CSc1nc2[nH]ncc2c(=O)[nH]1)Nc1cccc([N+](=O)[O-])c1 | -19.2
O=C(NC(Cc1ccccc1)C(=O)O)/C(=C\c1ccco1)NC(=O)c1ccccc1Br (stereo not shown) | 9.89
Cc1ccc(S(=O)(=O)N2CCOCC2)cc1C(=O)O | 11.5
CCN(CC)S(=O)(=O)c1ccc(OCC(=O)NCc2ccccc2)cc1 | -14.2
CSc1nsc(SC)c1NC(=O)OCCc1ccccn1 | -6.18
CCOC(=O)c1nn(-c2ccc3c(c2)CCN3C(C)=O)cc1O | -14.5
COC(=O)C1=C(CSc2nccn2C)NC(=O)NC1c1cc(C)ccc1C (stereo not shown) | 6.72
C=CCc1ccc(OCC(O)CN2CCN(Cc3ccc(Cl)cc3)CC2)c(OC)c1.Cl (stereo not shown) | -75.7
N#CC1=C(N)Oc2n[nH]c(-c3cccs3)c2C1c1ccccc1C(=O)O (stereo not shown) | 11
CCc1ccc(OCC(=O)NNC(=O)C2CCN(c3ncnc4sc(C)c(C)c34)CC2)cc1 | -45.3
Cc1ccc(C(C(=O)NCc2ccc(F)cc2)N(C(=O)c2csnn2)C2CC2)o1 (stereo not shown) | -56.7
O=C(Nc1ccc(C(=O)N2CCOCC2)cc1)c1cc(-c2cccnc2)nc2ccc(Br)cc12 | -0.666
COCCn1c(Cc2cccn2C)nnc1SCC(=O)NCc1ccc2c(c1)OCO2 | 2.16
Cn1c(=S)c2[nH]c(SCCN3CCCC3)nc2n(C)c1=O | 10.5
COc1cc(OC)cc(C(=O)N2CCC(N3CCCCCC3)CC2)c1 | -5.77
O=C(NCCN1C(=O)C2C3C=CC(C3)C2C1=O)NCc1ccccc1 (stereo not shown) | 13.8

Structure (SMILES) | hERG current change (%, negative = inhibition) at 10uM [%]
COc1cc(NC(=O)CN(c2cc(C)cc(C)c2)S(=O)(=O)c2c(C)[nH]c(=O)[nH]c2=O)cc(OC)c1 | -27.8
O=C(Cc1cccc(F)c1)Nc1ccc2c(c1)CCC2 | 30.3
COc1ccc(-c2cc(C(=O)Nc3cc(Cl)ccc3OC)no2)cc1 | 33.9
O=S(=O)(Nc1cccnc1Cl)c1ccc2c(c1)OCCO2 | 15.4
CC(C)C(=O)Nc1ccccc1C(=O)OCC(=O)c1ccc2c(c1)OCCO2 | -10.4
COc1ccc(C(=O)OC2CC3CCC(C2)[N+]3(C)[O-])cc1OC (stereo not shown) | 4.43
C=CCN(c1ccccc1C(=O)O)S(=O)(=O)c1ccc(NC(=O)OC)cc1 | 4.39
Cc1ccc(C)c(N2CCN(C(=O)c3cccn4c(=O)c5sccc5nc34)CC2)c1 | -44.1
CN=CC1=C(O)CC(C)(C)CC1=O | 11.5
Cc1ccc(N(C(=O)CCCC(=O)Nc2ccccn2)C(C(=O)NC2CCCC2)c2ccc(O)cc2)cc1C (stereo not shown) | -1.32
CCOc1ccc(N=Nc2c(C)[nH]n(-c3ccccc3)c2=O)cc1 | 18.6
O=C(COc1ccc2c(c1)CCC2)NCc1ccccc1 | 1.82
Cc1ccc(-c2csc(NC(=O)CN3CCOCC3)n2)cc1 | -8.79
O=[N+]([O-])c1ccc(N2CCN(S(=O)(=O)c3ccccc3)CC2)cc1NCc1cccnc1 | 1.8
NC(=O)NCCCC(NC(=O)c1ccc(C#CC2(O)CCCCC2)cc1)C(=O)O (stereo not shown) | 18.1
O=c1c(Cc2c(F)cccc2Cl)c(O)ccn1Cc1ccc2c(c1)OCO2 | 3.67
COC(=O)CC1Sc2ccccc2NC1=O (stereo not shown) | 7.56
Cc1ccc(F)cc1NC(=O)c1cccc(N(C)C)c1 | -4.45
O=C(N/N=C1/CCSC1)c1cc(Br)ccc1O | -9.66
